Values joined by “and” are separate entries in the source; they are usually repeats but may differ in a detail not shown here. Equal entries are not always repeated. The campaign covered roughly 390,000 compounds. About 17,000 (4.4%) were called active. The inconclusive results got no clear call from the source; some entries with a clear call stand among them for comparison. The call rests on the fitted dose curve; in most records, active means well fitted inhibition curve with a large enough effect; inconclusive means small, poorly fitted or top-dose-only effect; inactive means no such curve, though single readings can be large or run the other way. Where the call is inconclusive, the potency comes from a doubtful curve fit.
These compounds were tested against Lysine-specific demethylase 4A (Homo sapiens) (UniProt O75164) (assay: qHTS Assay for Inhibitors of JMJD2A-Tudor Domain). Conditions: AlphaScreen JMJD2A-Tudor / H3K4me3 peptide binding; activity change, negative = inhibition: at 114 µM (top of the series).
UniProt O75164, sequence (O75164 whole entry, looked up, the tested form may be a part): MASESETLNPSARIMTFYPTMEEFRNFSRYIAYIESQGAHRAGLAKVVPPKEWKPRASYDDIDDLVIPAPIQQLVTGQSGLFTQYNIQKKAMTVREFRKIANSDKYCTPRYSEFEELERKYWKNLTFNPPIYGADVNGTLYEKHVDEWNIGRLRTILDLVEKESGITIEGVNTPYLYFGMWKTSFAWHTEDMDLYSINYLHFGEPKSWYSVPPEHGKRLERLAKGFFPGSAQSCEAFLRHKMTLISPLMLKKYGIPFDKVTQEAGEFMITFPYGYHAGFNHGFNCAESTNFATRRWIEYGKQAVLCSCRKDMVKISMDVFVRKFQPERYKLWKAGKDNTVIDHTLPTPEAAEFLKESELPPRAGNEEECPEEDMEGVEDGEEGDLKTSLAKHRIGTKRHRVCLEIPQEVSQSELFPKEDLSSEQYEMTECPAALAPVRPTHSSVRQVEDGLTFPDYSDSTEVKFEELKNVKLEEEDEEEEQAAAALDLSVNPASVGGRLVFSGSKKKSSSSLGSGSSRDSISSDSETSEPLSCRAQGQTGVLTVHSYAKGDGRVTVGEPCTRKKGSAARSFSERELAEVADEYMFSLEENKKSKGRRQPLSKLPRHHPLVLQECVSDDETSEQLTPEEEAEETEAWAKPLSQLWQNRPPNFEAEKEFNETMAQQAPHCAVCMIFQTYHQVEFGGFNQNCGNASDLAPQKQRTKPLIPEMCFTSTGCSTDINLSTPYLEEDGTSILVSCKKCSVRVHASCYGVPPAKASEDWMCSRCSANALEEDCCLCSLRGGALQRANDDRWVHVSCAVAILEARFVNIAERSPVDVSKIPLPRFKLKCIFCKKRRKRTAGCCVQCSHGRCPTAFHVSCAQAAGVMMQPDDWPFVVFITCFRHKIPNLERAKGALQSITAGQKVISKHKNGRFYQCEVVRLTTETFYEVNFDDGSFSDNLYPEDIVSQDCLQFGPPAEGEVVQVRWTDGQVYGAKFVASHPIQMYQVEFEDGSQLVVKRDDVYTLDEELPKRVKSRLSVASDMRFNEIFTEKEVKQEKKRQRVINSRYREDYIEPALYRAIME
Further: nearly all actives have a fitted effect of over 50% in size.
On the % scale 0 is the no-effect control and ±100 the full control effect; potency means the concentration at half of the fitted maximal effect; tags describe the fitted curve by direction and shape.

Row | SMILES | Potency | activity change, negative = inhibition
1 | O=c1c2c(-c3cccs3)csc2ncn1-c1ccccc1 | inactive | 
2 | CCCc1cc(=O)n2nc(N3CCC(C(=O)NCc4ccco4)CC3)sc2n1 | active: 25.1 µM | 
3 | CC1(C)CC(=O)C2=C(C1)NC(Nc1nc3ccccc3o1)=NC21CCCC1 | inconclusive: 22.4 µM [inhibitor, full curve, poor fit] | 
4 | CCCOc1ccc(C(=O)c2nc3c(n2O)CCCCC3)cc1 | inconclusive: 56.2 µM [inhibitor, partial curve] | 
5 | COc1cc2c(cc1NC(=O)c1cccc(S(=O)(=O)N(C)C)c1)oc1ccccc12 | inactive | 
6 | COc1ccc(CC(=O)NCC(=O)N/N=C/c2cc(Br)ccc2OC)cc1 | inactive | 
7 | COc1ccc(C(=O)Nn2c(CCC(=O)O)ccc2-c2ccc(C)cc2)cc1OC | active: 50.1 µM | 
8 | COc1cc(/C=C(\C#N)C(=O)Nc2cccc(C(=O)O)c2)ccc1OCc1ccc(Cl)cc1 | inconclusive: 56.2 µM [inhibitor, partial curve] | 
9 | CCN(CC)c1ccc(NC(=O)c2cc(C)nc3c2c(C)nn3-c2cccc(F)c2)c(C)c1 | inactive | 
10 | c1ccc(-c2nnc(CN3CCN(c4ccccn4)CC3)o2)cc1 | inactive | 
11 | CCOCCCn1c(=S)[nH]c2cc(C(=O)N3CCC(C(N)=O)CC3)ccc2c1=O | active: 8.91 µM | 
12 | CCn1c(-c2ccc(F)cc2)n[nH]c1=S | active: 5.01 µM | 
13 | Cc1[nH][nH]c(=O)c1C(c1ccc(-c2ccc(Cl)c(Cl)c2)o1)c1c(C)[nH][nH]c1=O | inconclusive: 44.7 µM [inhibitor, partial curve] | 
14 | CCC(CC)NC(=O)/C=C/c1ccccc1Cl | inconclusive: 17.8 µM [inhibitor, partial curve] | 
15 | CCN(CC)c1ccc(CN(C(=O)Cc2coc3ccc(C)cc23)C2CCS(=O)(=O)C2)cc1 (configuration not stated) | inconclusive: 17.8 µM [inhibitor, full curve] | 
16 | CCOc1cccc(CC(=O)N2CCc3c([nH]c4ccccc34)C2c2ccccc2)c1OCC (configuration not stated) | inconclusive: 28.2 µM [inhibitor, full curve, poor fit] | 
17 | O=C(CCN1CCOCC1)NNC(=S)NC(=O)c1ccc(Br)cc1 | inconclusive: 28.2 µM [inhibitor, partial curve] | 
18 | CCc1cccc(NC(=O)CCCCCC2NC(=O)NC2C)c1 (configuration not stated) | active: 0.316 µM | 
19 | CCn1c(C)[n+](CCCS(=O)(=O)[O-])c2cc(Cl)c(Cl)cc21 | inconclusive: 89.1 µM [inhibitor, single point] | 
20 | COc1ccc(CN2CCN(C(=O)c3cccs3)CC2)cc1Br | active: 35.5 µM | 
21 | CNCCCOc1ccc(Cl)cc1C(C)(C)C | active: 44.7 µM | 
22 | C=C1CC[C@H](O)C/C1=C/C=C1\CCC[C@]2(C)[C@@H]([C@H](C)/C=C/[C@H](C)C(C)C)CC[C@@H]12 | inconclusive: 56.2 µM [inhibitor, partial curve] | 
23 | O=C(CCN1C(=O)S/C(=C\c2ccccc2)C1=O)Nc1ccc(S(=O)(=O)Nc2nccs2)cc1 | inconclusive: 12.6 µM [inhibitor, full curve, poor fit] | 
24 | COc1cc(NS(=O)(=O)c2ccc(Nc3nc(-c4cccc([N+](=O)[O-])c4)cs3)cc2)nc(OC)n1 | inconclusive: 31.6 µM [inhibitor, partial curve] | 

Row | SMILES | Potency | activity change, negative = inhibition
25 | c1ccc(-c2nc(-c3ccncc3)n[nH]2)nc1 | active: 2.82 µM | 
26 | O=C(CC1SC(=Nc2ccccc2)N(CCc2c[nH]c3ccccc23)C1=O)Nc1ccccc1F (configuration not stated) | inconclusive: 31.6 µM [inhibitor, partial curve] | 
27 | COc1ccccc1CN1CCN(C(=O)c2cccc3ccccc23)CC1 | active: 20 µM | 
28 | CCn1ccnc1CN(C)C(=O)c1cc(COc2ccc(OC)c3ccccc23)on1 | active: 50.1 µM | 
29 | Cc1cc(Cl)ccc1NNC(=O)c1snnc1C | inconclusive: 89.1 µM [inhibitor, single point] | 
30 | O=C(CSc1ccc(-c2ccco2)nn1)c1cccc([N+](=O)[O-])c1 | inconclusive: 25.1 µM [inhibitor, full curve] | 
31 | Fc1ccc(-c2ccc3c(c2)C2CC3CCN2Cc2ccc3c(c2)OCO3)cc1 (configuration not stated) | inactive | 
32 | Cc1cc(NC(=O)c2ccc(NC(=O)c3cccs3)cc2)no1 | inconclusive: 100 µM [inhibitor, single point] | 
33 | O=c1[nH]c(NC2CCCCC2)c([N+](=O)[O-])c(=O)[nH]1 | inactive | 
34 | Cc1ccc(C)c(Nc2ncnc3onc(C)c23)c1 | inactive | 
35 | Nc1nonc1C(=O)N/N=C/c1cc(Br)ccc1O | active: 17.8 µM | 
36 | CC(=O)N1CCN(S(=O)(=O)c2cccc(C(=O)Nc3nc4c(s3)CCCC4)c2)CC1 | inconclusive: 50.1 µM [inhibitor, partial curve] | 
37 | Cn1c(N=NC(=O)c2ccccc2)c(O)c2ccccc21 | active: 31.6 µM | 
38 | COc1cc(/C=C2\SC(=S)N(N3CCOCC3)C2=O)cc(OC)c1OC | inactive | 
39 | CN(C)c1ccsc1C(=O)NNS(=O)(=O)c1ccc(Cl)cc1 | inactive | 
40 | O=C(CC1CC2CCC1C2)N1CCN(S(=O)(=O)c2ccccc2F)CC1 (configuration not stated) | inactive | 
41 | Cc1[nH]c2ccccc2c1C(C[N+](=O)[O-])c1ccco1 (configuration not stated) | inconclusive: 44.7 µM [inhibitor, partial curve] | 
42 | COc1cc(Cl)c(C)cc1NC(=O)c1ccc2c(SCC(=O)O)c3c(nc2c1)CCCC3 | inconclusive: 56.2 µM [inhibitor, partial curve] and inconclusive: 79.4 µM [inhibitor, partial curve] | 
43 | CC(=O)N1CCN(C(=O)CCN(c2ccccc2)S(=O)(=O)c2ccc(C)cc2)CC1 | inactive | 
44 | CC(c1ccccc1)n1c(Cn2ncc3ccccc3c2=O)n[nH]c1=S (configuration not stated) | active: 31.6 µM | 
45 | O=C(c1cccnc1)N1CCN(CCCc2ccccc2)CC1 | active: 5.01 µM | 
46 | S=c1[nH]nc(-c2ccc3ncccc3c2)n1-c1ccc2c(c1)OCCO2 |  | inconclusive: -98.6% [inhibitor]
47 | O=C(CN1C(=O)NC2(CCc3ccccc32)C1=O)Nc1ccc(N2CCOCC2)cc1 (configuration not stated) | inconclusive: 79.4 µM [inhibitor, partial curve] | 

Source: PubChem BioAssay AID504339 (National Center for Advancing Translational Sciences (NCATS), 2011)
